Experimental data reported in PubChem BioAssay (NCI).
Several values for one entry are separate records, joined by “and”; a condition that tells them apart may be missing. Equal values may be shown once.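 Grown in 96-well plates, cells were treated for 48 hours with each compound at five concentrations. Insufficient inhibition: endpoint recorded as highest concentration tested. GI50 is the concentration that inhibits growth by half. TGI denotes the concentration required for complete inhibition of growth.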

Test system: NCI-H322M lung
Experiment: inhibition of tumour cell growth, NCI panel, 48 h

SMILES	TGI	GI50
C=C(c1nc2ccc(Cl)cc2[nH]c1=O)C(O)c1ccc(C(O)C(=O)c2nc3ccc(Cl)cc3[nH]c2=O)cc1 (stereo unspecified)	> 100 µM	–
CC(C)C(=O)[C@@]1(C)SC[C@H]2CCN=C21	> 100 µM	–
CCOc1cc2c(OCc3ccccc3)cc3c4cc(OC)c(OC)cc4c[n+](C)c3c2cc1OC	13.5 µM	–
Nc1ccc(-c2nc3cc(F)ccc3s2)cc1Cl	> 44.3 µM	–
CCOC(=O)CCCn1c(SC)nc2[nH]cc(-c3ccccc3)c2c1=O	> 100 µM	> 100 µM
Nc1c2c(nc3cc(F)c(F)cc13)CCC2	> 100 µM	–
O=[N+]([O-])c1ccc(C2=Nn3cnnc3SC2)o1	> 100 µM	–
Cc1cc(C)n(C(=C(C(Cl)=C(Cl)Cl)[N+](=O)[O-])n2nc(C)cc2C)n1	14.8 µM	–
CC1(C)COC(c2cccnc2/C=N/O)=N1	> 100 µM	–
CC(C)=CCNc1ncnc2c1ncn2C1OC(CO)C(O)C1O (stereo unspecified)	> 1000 µM	3.27 µM
C=C1CC[C@@H]2[C@](C)(COC(C)=O)[C@H](OC(C)=O)CC[C@@]2(C)[C@@H]1CC(Sc1ccccc1)C1=CCOC1=O (stereo partly specified)	10.4 µM	2.93 µM
N#Cc1nc2ccccc2nc1N1CCN(c2ccc([N+](=O)[O-])cc2)CC1	> 100 µM	–
CC1=C(C(=O)Nc2ccccc2)C(c2ccccc2)C(C(=O)Nc2ccccc2)=C(C)N1	> 100 µM	–
OCC1OC(c2cccc3cc(O)c(O)cc23)CC1O (stereo unspecified)	> 100 µM	–
CCN(CC)CCC(CNc1ccnc2cc(Cl)ccc12)c1ccc(OC)cc1 (stereo unspecified)	15.7 µM and 25.6 µM	2.82 µM and 4.84 µM
COc1cc(C(=O)n2c3ccc(Br)cc3c3nc4ccccc4nc32)cc(OC)c1OC	> 100 µM	–
OC[C@H]1C[C@](O)(c2ccc(Cl)cc2)[C@@H](c2ccc(Cl)cc2)O1	> 100 µM	35.2 µM
COc1ccc(CN2C(=O)/C(=C\C(=O)c3ccc(OCCN4CCCCC4)cc3)c3ccccc32)cc1	26.3 µM	13.3 µM
CC(C)=CC/C=C(/C)[C@H]1CC[C@]2(C)[C@@H]1CC[C@@H]1[C@@]3(C)CCCNC(C)(C)[C@@H]3CC[C@]12C	4.07 µM	1.87 µM
COC(=O)c1ccc(C(=O)NC(Cc2ccc(Oc3cc(CC(NC(=O)c4ccccc4C(=O)OC)C(=O)OC)ccc3OC)cc2)C(=O)OC)cc1 (stereo unspecified)	> 100 µM	–
Cc1cc(I)cc(CN(C)CCCN2CCCCCCC2)c1O	31.2 µM	16.3 µM
Cn1c2ccccc2c2c3c(c4c5cc(Br)ccc5n(C)c4c21)C(=O)N(O)C3=O	> 100 µM	0.374 µM
